Results on 61 compounds are retold here after PubChem BioAssay AID485344 (National Center for Advancing Translational Sciences (NCATS), 2010).

Among all 340,000 compounds or so, about 6,900 (2%) were called active. No stated cut-off is given here; in the data, active means inhibition above about 30%; inactive means below that, where a call was filed. The entries are a selection whose mix differs from that of the whole data set. Entries without a call were filed so in the source.

Sequence of UniProt P14416 (P14416 whole entry, looked up): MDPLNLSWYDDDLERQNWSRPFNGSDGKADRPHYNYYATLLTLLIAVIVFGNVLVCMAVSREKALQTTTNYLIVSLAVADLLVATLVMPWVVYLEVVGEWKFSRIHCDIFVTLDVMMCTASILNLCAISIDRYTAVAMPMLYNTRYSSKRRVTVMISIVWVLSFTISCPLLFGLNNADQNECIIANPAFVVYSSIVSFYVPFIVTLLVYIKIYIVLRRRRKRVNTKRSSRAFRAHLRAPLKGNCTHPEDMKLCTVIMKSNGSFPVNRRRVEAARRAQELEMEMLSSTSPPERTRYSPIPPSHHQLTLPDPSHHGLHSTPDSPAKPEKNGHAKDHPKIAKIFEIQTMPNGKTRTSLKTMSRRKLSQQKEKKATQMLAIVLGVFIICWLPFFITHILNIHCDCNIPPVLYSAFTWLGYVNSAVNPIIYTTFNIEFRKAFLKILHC

For the assay, the target named is D(2) dopamine receptor (Homo sapiens) (UniProt P14416). As to the kind of experiment: HTS Assay for Allosteric Antagonists of the Human D2 Dopamine Receptor: Primary Screen for Antagonists. Further: 0% is about no effect. The conditions noted are these: HEK293 TREx D2 cells, calcium flux, dopamine EC80; at 10 µM; stronger effect = higher value. Summed up:
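Overnight-induced (tetracycline, 30 C) HEK293 T-REx cells carrying force-coupled D2 receive a no-wash calcium dye, then compound, then EC80 dopamine at 180 s; signals are read kinetically throughout.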
(A change in cytosolic calcium serves as a functional read-out for many receptors and channels.)
For the compound `COc1ccc(C(=O)Nc2nnc(S(=O)(=O)N(CC(C)C)c3ccccc3)s2)cc1`, the inhibition (commonly the relative decrease from the control value, in per cent) was found to be 9.7%.

On to `COc1ccc(NC(=O)c2ccc3c(c2)nnn3C2CCCC2)cc1Cl`, for which the inhibition was -6.43%.

With `Cc1ccc(Cn2c(C(=O)O)c(CNCc3cccs3)c3ccc(C)cc32)cc1`, the inhibition stood at 18.5%.

Consider `COc1cc(NC(=O)NCCn2nnc3cc(S(=O)(=O)N(C)C)ccc32)cc(OC)c1`, for which the inhibition amounted to 6.2%.

In the case of `Cc1ccc(Cl)cc1NC(=O)c1ccc2snnc2c1`, the inhibition is -14%.

Regarding `CC(C)C(NC(=O)c1ccccc1)C(=O)NCc1ccccn1` (stereo unspecified), the inhibition was active: 61.3%.

On to `CC(C)(C)OC(=O)N1CCC(c2c(C(=O)NCc3ccc4c(c3)OCO4)cnn2-c2ccccc2Cl)CC1`, for which the inhibition amounted to 1.72%.

For `Cc1ccc(-c2nnc3ccccc3c2C(=O)Nc2cccc(Cl)c2)cc1`, the inhibition turned out to be 14%.

Regarding `Cn1c(=O)c(=O)n(C)c2cc(N3CCOCC3)c(NS(=O)(=O)c3ccc(F)c(Cl)c3)cc21`, the inhibition is -11.2%.

Regarding `Cc1cc(NC(=O)CSc2nc(C(C)C)nc3sc(C)c(C)c23)no1`, the inhibition was active: 35.3%.

For the compound `COc1ccc(NC(=O)c2cc3cc(C)ccc3n2C)cc1`, the inhibition turned out to be 0.963%.

As to `COc1ccccc1NC(=O)NCC1(N(C)C)CCCCC1`, the inhibition was active: 58.7%.

Consider `O=C(Nc1cc(Cl)cc(Cl)c1)c1cc(S(=O)(=O)N2CCc3ccccc3C2)ccc1F`, for which the inhibition is 8.92%.

Take `CCOC(=O)c1cccc(NC(=O)C2CCCN(c3nnc(C)c4c(C)n(-c5ccccc5)nc34)C2)c1` (stereo unspecified): the inhibition is -7.06%.

Consider `COC(=O)c1cc(C(=O)OC)cc(-n2c(C)cc(C(=O)CC#N)c2C)c1`, for which the inhibition was active: 32.7%.

`CCOc1ccc(CN(C)c2nc(-c3cccnc3)nc3ccccc23)cc1OC`: the inhibition was active: 36%.

`COc1ccc(OC)c(C2C(C(=O)Nc3ccccc3OC)=C(C)Nc3c(C(=O)Nc4ccc(F)cc4)cnn32)c1` (stereo unspecified): the inhibition amounted to 8.33%.

In the case of `COc1ccc(C(=O)Nc2c(C(=O)c3ccccc3)oc3ccccc23)cc1`, the inhibition amounted to 4.95%.

Turning to `Clc1ccc(Cl)c(OCCN2CCCC2)c1`, the inhibition is active: 46.7%.

For the compound `Cc1ccc(NC(=O)c2nnn(-c3ccc4c(c3)OCCO4)c2N)cc1`, the inhibition was active: 60.4%.

In the case of `CCc1ccccc1Nc1cc(C(=O)NC2CCC(C)CC2)c2ccccc2n1` (stereo unspecified), the inhibition worked out at 1.94%.

With `CCc1c(C)sc(NC(=O)C2c3ccccc3Oc3ccccc32)c1C(=O)OC(C)C`, the inhibition turned out to be 6.06%.

In the case of `COc1ccc(CNC(=O)c2cc(-c3ccc(C)c(C)c3)n[nH]2)cc1`, the inhibition came out at 9.31%.

For `Cc1cccc(-n2ccnc2SCC(=O)Nc2nc3ccccc3s2)c1`, the inhibition is -2.41%.

For the compound `COc1ccccc1N1CCN(c2nc3c(S(=O)(=O)c4ccc(C)c(C)c4)nnn3c3ccc(Cl)cc23)CC1`, the inhibition is -9.76%.

In the case of `CCOC(=O)C(=O)Nc1c(C(=O)Nc2cccc(F)c2)oc2ccccc12`, the inhibition is -9.04%.

`CCOC(=O)c1ccc(NS(=O)(=O)c2cc(Br)cc3c2N(C(C)=O)C(C)C3)cc1` (stereo unspecified): the inhibition came out at 3.8%.

In the case of `CCN(CCCNC(=O)c1nn(-c2ccc(OC)c(Cl)c2)c(=O)c2c1c1ccccc1n2C)c1cccc(C)c1`, the inhibition turned out to be 10.4%.

Regarding `Cc1cccc(-c2nc(SCC(=O)NCc3ccco3)c3c(=O)n(C)c(=O)n(C)c3n2)c1`, the inhibition was determined as 25.2%.

On to `Cc1ccc(Cn2c(CNS(=O)(=O)c3ccc(Cl)s3)nc3cccnc32)cc1`, for which the inhibition is 8.35%.

On to `Cc1cc2[nH]c(=O)c(=O)[nH]c2cc1S(=O)(=O)N1CCN(c2cccc(C)c2C)CC1`, for which the inhibition worked out at 15%.

On to `CCCCNC(=S)NCc1ccc2[nH]c(C)cc2c1`, for which the inhibition was active: 30.3%.

`COc1cc(NC(=O)c2cnc3c(-c4ccc(F)cc4)c(C)nn3c2C)cc(OC)c1`: the inhibition was 10.1%.

With `Cc1ccc(Sc2c(C(=O)NCc3ccccc3C)[nH]c3ccccc23)cc1`, the inhibition worked out at 16%.

On to `CCc1ccc(-c2nc(-c3cc4ccccc4oc3=O)sc2C)cc1`, for which the inhibition is -2.83%.

With `CCN(CC)S(=O)(=O)c1ccc2oc(C(=O)Nc3ccc(Br)cc3F)c(C)c2c1`, the inhibition was -3.48%.

For `COc1ccc(CNC(=O)CN2C(=O)CCCc3ccccc32)cc1`, the inhibition is -4.17%.

Turning to `Cc1ccc(-c2nc3ccc(Cl)cn3c2Nc2ccc3c(c2)OCCO3)s1`, the inhibition is -4.77%.

As to `COc1ccc(CCNC(=O)CCc2c(C)c3cc4c(C)c(C)oc4cc3oc2=O)cc1`, the inhibition was -19.8%.

As to `COc1ccc(NC(=O)CC(C)n2nc(C)cc2C)cc1Cl` (stereo unspecified), the inhibition is -10.2%.

In the case of `CCOc1ccc(CCNC(=O)Cn2ncn3c(cc4ccccc43)c2=O)cc1OCC`, the inhibition was -5.41%.

Turning to `CCn1c(C(=O)Nc2cc(Cl)ccc2C)cc2sc(Cl)cc21`, the inhibition is -27.7%.

On to `O=C(CSc1ncc(CO)n1Cc1ccccc1)Nc1ccc(C(F)(F)F)cc1`, for which the inhibition came to 2.62%.

Turning to `COc1cccc(C2c3c(-c4ccccc4O)n[nH]c3C(=O)N2CCc2ccc(OC)c(OC)c2)c1` (stereo unspecified), the inhibition is -14.9%.

On to `CC(C)COc1ccc(C(=O)N2CCN(CCc3ccccn3)CC2)cc1`, for which the inhibition is 8.11%.

Take `CCOC(=O)c1c(NC(=O)COc2cccc(C(F)(F)F)c2)sc2c1CCCCC2`: the inhibition came out at 0.37%.

Consider `Cc1ccc2nc(N3C(=O)C(O)=C(C(=O)c4ccc(C)o4)C3c3ccco3)sc2c1` (stereo unspecified), for which the inhibition is active: 31.3%.

Regarding `CCOc1nc(-c2ccc(C)cc2)ccc1-c1noc(-c2ccccc2F)n1`, the inhibition was -10.3%.

On to `O=C(Nc1nnc(S(=O)(=O)N2CCc3ccccc32)s1)c1ccccc1`, for which the inhibition was 18.8%.

For `O=C(Nc1c(C(=O)Nc2cccc(F)c2)oc2ccccc12)c1cc2ccccc2o1`, the inhibition was found to be 7.37%.

As for `COc1cc2[nH]c(=O)n(CCCCCC(=O)NCCc3ccccc3)c(=O)c2cc1OC`, the inhibition is 2.24%.

As for `CCCOc1ccc(CN(C(=O)c2nc(SC(C)C)ncc2Cl)C2CCS(=O)(=O)C2)cc1` (stereo unspecified), the inhibition came out at 14%.

On to `CCOc1ccc(/C=C/c2nc(C#N)c(Nc3ccc(OC)cc3)o2)cc1`, for which the inhibition is -16.8%.

As for `CSc1ccc(CCNC(=O)CCc2c(C)nc3cc(-c4ccccc4)nn3c2C)cc1`, the inhibition is -1.16%.

`N#Cc1ccccc1Cn1c(=O)n(Cc2ccc(C(=O)NC3CCN(Cc4ccccc4)CC3)cc2)c(=O)c2ccccc21`: the inhibition was found to be 9.96%.

For the compound `Cc1c2cnn(-c3ccccc3)c(=O)c2c(C)n1C(C)C(=O)Nc1ccc(Br)cc1F` (stereo unspecified), the inhibition turned out to be 5.81%.

Turning to `Cc1ccc(-n2c(SCC(=O)Nc3cccc(F)c3)nc3c(oc4ccccc43)c2=O)cc1C`, the inhibition is -7.75%.

On to `COc1ccc(N2CCN(C(=O)NCc3noc4ccccc34)CC2)cc1`, for which the inhibition was found to be 3.22%.

With `Cc1cc(C)cc(-n2ccn3c(CC(C)(C)CC(=O)O)nnc3c2=O)c1`, the inhibition is 0.836%.

Regarding `COc1cccc(NC(=O)C2CCCN2S(=O)(=O)c2ccc3c(c2)C(C)(C)C(=O)N3C)c1` (stereo unspecified), the inhibition was determined as 18%.

As for `Cc1ccc2oc3c(c(=O)c2c1)C(c1cccc(O)c1)N(Cc1ccccc1Cl)C3=O` (stereo unspecified), the inhibition was 10.2%.
